Settings: Escherichia coli (strain K12), pH 7, Hepes 5 mM, transition: 2, reversible: no

Thioredoxin 1 wild type (letters omitted)
denaturant m value (25 °C, Urea, fluorescence): 1.28 kcal/mol/M
denaturant midpoint (higher = more stable) (25 °C, Urea, fluorescence): 6.92 M
Tm (Thermal, DSC): 89 °C
heat capacity change of unfolding (Thermal, DSC): 1.39 kcal/mol/K
unfolding enthalpy (calorimetric) (Thermal, DSC): 430 kJ/mol

Reference: FireProtDB (doi:10.1016/j.jmb.2006.07.065)
